# Reference: PMC12136788
# The other results are listed elsewhere or left out.
# T1: UNK ZnF1-6 (called full-length) (human, UniProt Q9C0B0 30-357)
# T1 sequence: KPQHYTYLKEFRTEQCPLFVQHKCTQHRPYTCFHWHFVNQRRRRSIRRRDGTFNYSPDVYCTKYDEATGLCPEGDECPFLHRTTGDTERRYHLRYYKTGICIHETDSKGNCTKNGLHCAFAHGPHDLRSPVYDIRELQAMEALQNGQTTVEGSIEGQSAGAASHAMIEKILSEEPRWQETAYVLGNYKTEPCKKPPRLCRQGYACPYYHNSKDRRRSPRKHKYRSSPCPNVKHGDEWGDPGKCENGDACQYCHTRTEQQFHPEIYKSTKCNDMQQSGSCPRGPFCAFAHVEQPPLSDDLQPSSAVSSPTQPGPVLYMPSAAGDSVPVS
# B1: chr2:112659350:112659462:+|CDS|ENSG00000144136|unk|total|mutant (ssRNA)
# RNA: GGGAGUUCUACAGUCCGACGAUCCUUGCCAAGGUGGGAGAUUGCAUGGGAGACUCCGGUGACAAACCCUUAAGGCGCAAUAACCGCUAUACUUCCUAUACCAUGGCAAUAUGUGGCAUGCCUCUGGAUUCAUUCCGUGCCAAACAACAGAGGAUUGAGCAUCA
# B2: chr2:74214837:74214938:+|3pUTR|ENSG00000065911|msi1_unk|FALSE|overlapping (ssRNA)
# RNA: GGGAGUUCUACAGUCCGACGAUCCUGUCCUUUUGAGGCUUAGUCAGUUUAUUGGGAAAAUGUUUAGGAUUAUUCCUUGCUAUUAGUACUCAUUUUAUGUAUGUUACCCUUCAGUAAGUUCUCCCCAUUUUAGUUUUCUAGGACCAACAGAGGAUUGAGCAUCA
# B3: chr10:131940083:131940120:+|CDS_3pUTR|ENSG00000175470|msi1_unk|FALSE|overlapping (ssRNA)
# RNA: GGGAGUUCUACAGUCCGACGAUCAUAUAAUGUUUACAGCACCUUUCAAAGUCAUGAACCGGAGUUUGACUAUUUGAAAAGUCUAGAAAUUGAGGAAAAAAUUAAUAAAAUUAGGUGGUUACCACAACAGAAUGCUGCUCAUUUCAACAGAGGAUUGAGCAUCA
# B4: ENSG00000136451:be:win_201|CDS|ENSG00000136451|bound_else_gene|NA|bound_elsewhere_windowed (ssRNA)
# RNA: GGGAGUUCUACAGUCCGACGAUCAGAAAAACCCAAAACUUCAUUUGUGUGCACUUACUGCAGUAAAGCUUUCAGGGACAGCUAUCACCUGAGGCGCCACGAAUCCUGCCACACAGGGAUCAAGUUGGUGUCCCGGCCAAAGAACAACAGAGGAUUGAGCAUCA
# B5: chr14:96341565:96341677:-|CDS|ENSG00000066739|unk|total|mutant (ssRNA)
# RNA: GGGAGUUCUACAGUCCGACGAUCCUGGAACCCCAAAAUUAUUUAUGAGCCACACCCACAGCUAACCCGAAAUUUACCAGAGACCGCACCUUCUGACCCAGUGCAGAUUGGACGGUUAAUUGGCCGGUUGGAGUUGAGUCUCACCAACAGAGGAUUGAGCAUCA
# B6: chr11:46743636:46743700:-|3pUTR|ENSG00000175216|msi1_unk|FALSE|overlapping (ssRNA)
# RNA: GGGAGUUCUACAGUCCGACGAUCUUGUAAAAUUGUCCUAAUCUUUCCUAGCUUUUUAAUAGUUAAUAUUAGAAACUCUUUAAUAGUUUUCCUUUCAGUUUGUGAGCUCUUCUCUGUCGCCCUGAAGGGUCACUGUAUUCUGUACAACAGAGGAUUGAGCAUCA
# B7: chr13:42321371:42321394:+|3pUTR|ENSG00000023516|msi1_unk|FALSE|overlapping (ssRNA)
# RNA: GGGAGUUCUACAGUCCGACGAUCUUCUGUUUAUGGUGUAAUCAUUCUGAGGUGAGGCUUUUCUUAUUUCCUUUGCAUUUUGCUAGAGCUGUGCUGAGUUCAGCAUUUGCUUAUUUAACCACUACAUAAUGACAGACCAGUUAUCAACAGAGGAUUGAGCAUCA
# B8: ENSG00000124766:be:win_2951|3pUTR|ENSG00000124766|bound_else_gene|NA|bound_elsewhere_windowed (ssRNA)
# RNA: GGGAGUUCUACAGUCCGACGAUCCUUUAUUCCUUCCUUUUCCUUUUUUUCUUUUUUUUUUCUUUUUUUUUUUUUUUUUUUGGUAGUUGUUGUUACCCACGCCAUUUUACGUCUCCUUCACUGAAGGGCUAGAGUUUUAACUUUCAACAGAGGAUUGAGCAUCA
# B9: chr13:108229279:108229380:+|CDS|ENSG00000139826|unk|FALSE|unique (ssRNA)
# RNA: GGGAGUUCUACAGUCCGACGAUCGCUAAUAGCCUUGGCUUCAUGGUCUUGGGCUCUCUGCCGUAUUUCUCUUUUACCUUUAAUAGUGACUUUUCAUCUGUAUGGAGGCAUUAUCUUACUUUUGUUAAUAUUCAUAUCAAUAGCCAACAGAGGAUUGAGCAUCA
# B10: chr12:120764159:120764260:-|3pUTR|ENSG00000157837|msi1|total|mutant (ssRNA)
# RNA: GGGAGUUCUACAGUCCGACGAUCACACACACACCGAUAUAUAUGAAUAAACAAAAAUGAAAUCCUGCUAAGAUCACGCUGUGCCGCUGACAGGGGCUUGCUGUCGUUUUGAGCAUGUCGAGCAGUUUACUGUGGCUUCCUUGUCAACAGAGGAUUGAGCAUCA
# B11: chr1:965281:965395:+|3pUTR|ENSG00000187961|unk|total|mutant (ssRNA)
# RNA: GGGAGUUCUACAGUCCGACGAUCCCAUCCGUUCACGUCUCUGCAUCCAUUCCUUCAUGUCUUUAUUCCGUUGUUUAUUUAUUCCGUUAUUUAUCUUAUUUAUUGAGGGGUGAGGAGUGCCACGGCUGCCCGUUUACACCUUUACAACAGAGGAUUGAGCAUCA
# B12: chr15:90882754:90882855:+|3pUTR|ENSG00000140564|msi1_unk|FALSE|overlapping (ssRNA)
# RNA: GGGAGUUCUACAGUCCGACGAUCCACUUUGUGAUUAUUUCACUUUAGAUGCUGAUGAUUUGUUUUUGUAUUUUUAAUGGGGGUAGCAGCUGGACUACCCACGUUCUCACACCCACCGUCCGCCCUGCUCCUCCCUGGCUGCCCCAACAGAGGAUUGAGCAUCA
# B13: chr12:48342538:48342639:-|3pUTR|ENSG00000167528|unk|FALSE|unique (ssRNA)
# RNA: GGGAGUUCUACAGUCCGACGAUCUUGUUAAACAUUUUGAGUAUCACUCUUGCAUACUGUUACUAUUAUAUUUUCUCUAUAUAUAGACAGAAAGGCCAUUUUAGAAUAUUAAAGGCUCUGAAAAUUUCUGCAGUAGACCCAACUCAACAGAGGAUUGAGCAUCA
# B14: chr9:15468732:15468834:-|CDS|ENSG00000164985|unk|total|mutant (ssRNA)
# RNA: GGGAGUUCUACAGUCCGACGAUCAAUCCGGAAAACAAUUAUGAUGAAUGUAUAUUGUUUUCUCAGAUACGGCGAUUCAAAGUCCGUCAGGUAAUCAUGGAAAAGUCUACAAUGUUGUAUAACAAGUUUAAGAACAUGUUCUUGCAACAGAGGAUUGAGCAUCA
# Biological target: T1, UNK ZnF1-6 (called full-length)
# Assay: nsRBNS (natural sequence RNA bind-n-seq); RBNS binding buffer (assumed for nsRBNS): 25 mM Tris pH 7.5, 150 mM KCl, 3 mM MgCl2, 0.01% Triton X-100, 500 ug/ml BSA, 20 U/ml SUPERase-In, 4 C; UNK is unkempt and MSI1 is Musashi-1; names of the RNAs are library labels; protein concentration not given here; high values mean tight binding
row,Binder,binding signal [enrichment R]
1,B1,0.509
2,B2,12.4
3,B3,8.41
4,B4,0.529
5,B5,0.744
6,B6,10.7
7,B7,0.605
8,B8,35.6
9,B9,2.35
10,B10,0.805
11,B11,5.63
12,B12,1.87
13,B13,3.54
14,B14,0.223
